Test results as given in PubChem BioAssay AID652104 (National Center for Advancing Translational Sciences (NCATS), 2013).
Hit rate of the full screen: of about 410,000 compounds, about 7,200 (1.8%) were called active. This list was built around the results that the source calls inconclusive (neither active nor inactive); the mix of calls is not that of the screen. Calls come from the whole dose curve; as a rule, active = well fitted activation curve with a large enough effect; inconclusive = small, poorly fitted or top-dose-only effect, or another doubt; inactive = no such curve, though single readings can be large or run the other way. Where the call is inconclusive, the potency comes from a doubtful curve fit.

experiment: qHTS of TDP-43 Inhibitors; details: TDP-43 expressing yeast growth rescue, BacTiter-Glo, 24 h; growth rescue (activation): at 46.1 µM (top of the series) unless noted; note: nearly all actives have a fitted effect of over 50% in size; for growth rescue (activation): % of control where 0% means no effect
Outline: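 Readout is BacTiter-Glo luminescence of cell growth, so inhibitors register as activators. TDP-43-expressing yeast at OD600=0.02 in galactose medium, after raffinose pregrowth to mid-log, were incubated with compound for 24 hr at 30 deg C.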
Potency is the fitted concentration of half-maximal effect; tags give direction and shape of the fitted curve.

Potency, inconclusive:
COc1ccc(/C(C)=N/Nc2ncc(Cl)cc2Cl)c(O)c1 2.51 µM [activator, full curve]
COc1ccc(N2CCN(C(=O)c3cc4c(-c5ccc(Cl)cc5)nn(C)c4s3)CC2)cc1 35.5 µM [activator, partial curve]
Cc1cc(C(=O)COc2ccccc2Cl)c(C)n1C1CC1 11.2 µM [activator, partial curve]
c1ccc(SC23CCCCN(CCC2)C32OCCO2)cc1 (stereo unspecified) 0.316 µM [activator, full curve]
Cc1nc(C)c(C(=O)NCCC(c2ccccc2)c2ccccc2)o1 35.5 µM [activator, single point]
CC(C)(C)OC(=O)NCCc1nnc(SCc2ccc(Cl)cc2Cl)o1 35.5 µM [activator, single point]
Cc1cc2oc(=O)cc(CN3CCN(S(=O)(=O)c4ccc5c(c4)OCCO5)CC3)c2cc1C 0.501 µM [activator, full curve, poor fit]
CCOC(=O)Cc1c(C)c2c(C)nn(-c3ccccc3)c2oc1=O 8.91 µM [activator, partial curve]
CCOc1ccc(Nc2oc(Cc3ccccc3)nc2C#N)cc1 35.5 µM [activator, single point]
O=C(CCSCc1ccc(Cl)cc1)NCc1ccc(F)cc1Cl 2.82 µM [activator, full curve, poor fit]
CCOC(=O)N/N=C/c1cn(CCCOc2ccc(C)cc2)c2ccccc12 14.1 µM [activator, single point]
Cc1sc(=NC(=O)c2ccco2)n(C)c1-c1ccccc1 17.8 µM [activator, single point]
CN(CCCNC(=O)Cn1cc2c(n1)CCCC2)C1CCCCC1 10 µM [activator, partial curve]
Cc1cc(C)n2nc(SCc3c(F)cccc3Cl)nc2n1 28.2 µM [activator, single point]
COc1ccccc1CNC(=O)CSc1nc(=O)[nH]c2c1CCC2 22.4 µM [activator, partial curve, poor fit]
CC(CCc1ccccc1)NC(=O)c1cccc(F)c1 (stereo unspecified) 1.58 µM [activator, full curve]
COc1ccc(Cl)cc1NC(=O)c1noc(C)c1[N+](=O)[O-] 2.82 µM [activator, partial curve]
Cc1ccc(F)cc1NCC(=O)Nc1ccc(Cl)cc1F 17.8 µM [activator, partial curve]
CC(NC(=O)CSCc1ccccc1Br)c1ccccc1 (stereo unspecified) 20 µM [activator, partial curve]
COc1cccc(OCCOc2ccccc2[N+](=O)[O-])c1 17.8 µM [activator, partial curve]
Cc1ccccc1-c1noc(-c2ccccc2C(=O)NCc2ccco2)n1 35.5 µM [activator, single point]
CC(C)CC(c1nnnn1Cc1cccs1)N1CCN(c2nc3ccccc3s2)CC1 (stereo unspecified) 35.5 µM [activator, single point]
C=CCNC(=O)CN1C(=O)c2cccc3cccc1c23 6.31 µM [activator, partial curve]
CC1(C(=O)NS(=O)(=O)c2ccc(F)cc2F)CCN1C(=O)c1ccc(C2CCCCC2)cc1 (stereo unspecified) 3.16 µM [activator, partial curve]
Cc1ccc(-c2ccc(CN3C(CC(C)C)C(=O)N(Cc4cn(CCC5OCCCO5)nn4)CCS3(=O)=O)cc2)cc1 (stereo unspecified) 20 µM [activator, partial curve]
CCCCCn1c(CNC(=O)c2ccccc2)nc2ccccc21 17.8 µM [activator, partial curve]
COc1cc(C(=O)c2cc3c(cc2C)OCO3)cc(OC)c1OC 35.5 µM [activator, single point]
C/C(=N\NC(=S)NC(C)C)c1ccc(Cl)s1 31.6 µM [activator, single point]
CCn1c(=S)sc2c(=O)n(-c3ccccc3)c(SC)nc21 12.6 µM [activator, single point]
CCCn1c(-c2nonc2N)nc2ccccc21 11.2 µM [activator, partial curve]
CC1CC(C)(C)n2c(O)c(N=NC(N)=S)c3cccc1c32 (stereo unspecified) 12.6 µM [activator, partial curve]
O=C(Nc1nccs1)c1ccc(Br)cc1 8.91 µM [activator, partial curve]
Cc1ccc2onc(CC(=O)N3CCN(c4ccccc4)CC3)c2c1 35.5 µM [activator, partial curve]
COc1cccc2cc(-c3nc4ccccc4[nH]3)c(=O)oc12 14.1 µM [activator, single point]
N#C/C(=C\c1cc(Br)c(O)c(Br)c1)c1nc2ccccc2c(=O)[nH]1 8.91 µM [activator, full curve]
CCC(=O)N1c2ccc(S(=O)(=O)CCC(=O)NCc3cccc(OC)c3)cc2CC1C (stereo unspecified) 0.316 µM [activator, full curve, poor fit]
COC(=O)CNC(c1ccccc1)c1cc(Br)ccc1NS(=O)(=O)c1ccc(C)cc1 (stereo unspecified) 11.2 µM [activator, partial curve]
CSc1nc(=O)[nH]nc1Sc1ccccc1 25.1 µM [activator, partial curve]
COC(=O)CC(N)c1ccc(OC)c2ccccc12 (stereo unspecified) 0.562 µM [activator, full curve, poor fit]
COCc1c(C(=O)Nc2ccc(C)c(S(=O)(=O)N3CCOCC3)c2)oc2ccccc12 35.5 µM [activator, single point]
O=c1c2ccccc2nnn1CSc1ccccc1F 12.6 µM [activator, partial curve]
c1cncc(-c2nc3ccccn3c2Nc2ccc3c(c2)OCCO3)c1 0.316 µM [activator, full curve, poor fit]
Cc1cccc(-n2c(-c3csc(C(C)C)c3)n[nH]c2=S)c1 11.2 µM [activator, single point]
CC(C)(C)NC(=O)CSc1ncnc2c1nnn2Cc1ccccc1Cl 25.1 µM [activator, single point]
NNC(=O)c1cc2nc(-c3cccs3)cc(C(F)(F)F)n2n1 5.01 µM [activator, full curve]
COCCNC(=O)CCc1c(C)nc2c(c(C)nn2-c2ccc(C)c(C)c2)c1C 20 µM [activator, partial curve]

Potency, active:
Cc1cc(C)c(C(=O)NC2CC(C)(C)Cc3c2cnn3-c2ccccc2)o1 (stereo unspecified) 15.8 µM
Cc1ccc(CNC(=O)COC(=O)c2nc(-c3ccccc3)oc2C)cc1 35.5 µM
CCNc1nc(N)c(C(=O)c2ccc(Cl)s2)s1 12.6 µM
CCOc1ccc2nc(SCC(=O)NCc3ccco3)sc2c1 14.1 µM
Cc1ccc(CN(C)C(=O)c2cccc(S(=O)(=O)N3CCc4ccccc4C3)c2)o1 35.5 µM
COc1ccc(C=C(C(=O)c2ccccc2)C(=O)c2ccccc2)cc1 14.1 µM
O=C1C(=O)c2c(ccc3ccccc23)-c2ccccc21 2 µM
CCOC(=O)/C(=N\Nc1cccc(Cl)c1)Sc1nnc(-c2ccc(OC)cc2)n1C 31.6 µM
COc1ccc(-c2nc(Cn3c(SCc4ccccc4F)nc4cccnc43)c(C)o2)cc1 31.6 µM

Potency, inactive:
O=C(NCCc1ccccc1)c1ccc(CS(=O)(=O)c2ccc(Cl)cc2)o1

Growth rescue (activation), inconclusive:
N/C(=N\OC(=O)C12CC3CC(CC(C3)C1)C2)c1ccccn1 -89% [activator]

Growth rescue (activation), inactive:
Cc1nn(C(=O)c2cccc(F)c2)c(C)c1S(=O)(=O)N1CCOCC1 0%
CCOC(=O)c1sc2ccccc2c1S(=O)(=O)N1CCN(c2cc(C)ccc2C)CC1 13%
Cc1cnc(NC(=O)c2ccc3c(c2)C(=O)N(Cc2ccco2)C3=O)s1 -5.39%
NC(=O)c1nn2c(C(F)(F)F)cc(-c3ccc(Br)cc3)nc2c1Cl 23.5%
Cc1ccccc1NC(=O)Cn1nnc(C(=O)NCCc2ccccc2)c1N -4.02%
O=C(OCc1ccccc1)N1CCC2CC1c1cc(-c3ccccc3)ccc12 (stereo unspecified) 18.1%
Cc1ccc(C)c(N(C)C(=O)Cc2c(C(=O)O)[nH]c3ccc(Cl)cc23)c1 8.23%
Nc1nc(-c2ccccc2)[nH]c(=O)c1N 8.88%
CCc1ccc(S(=O)(=O)NCc2nc3cccnc3n2Cc2cccc(OC)c2)cc1 22.1%
COC(=O)c1ccc(NC(=O)CN(Cc2ccccc2)S(=O)(=O)c2ccc(Cl)cc2)cc1 7.46%
COc1ccc(S(=O)(=O)Nc2ccc3c(c2)CC(=O)N([C@@H](C)CO)C[C@H](C)[C@@H](CN(C)S(=O)(=O)c2ccc(F)cc2)O3)cc1 -7.26%
COC(=O)c1ccc(CNC(=O)c2ccc(S(=O)(=O)N(C)c3ccccc3OC)cc2)cc1 9.36%
CCN(CC)CCSc1nnc2c3cc(F)ccc3n(CC)c2n1 -27.1%
CCOc1ccc(NC(=O)C(C)n2c(=O)cc(C)c3c(C)nn(-c4ccccc4)c32)cc1 (stereo unspecified) 11.8%
